Assay results as given in the supplement of paper PMC4967469.
By IC50 is meant the dose at which the fit gives 50% viability; fits outside the tested doses are given as limits. For AUC the same curve is integrated over the 256-fold range of doses and scaled to a fraction; it is 1 without any effect and falls as sensitivity rises. For part of these data: A top dose marked as inferred comes from the curve model; the source does not state it.

Columns and labels:
Assay in all cases: Viability of human cancer cell lines after 72 h of drug (GDSC screen)
GW843682X = compound: COc1cc2ncn(-c3cc(OCc4ccccc4C(F)(F)F)c(C(N)=O)s3)c2cc1OC [GW843682X]; details: top dose 0.256 µM
Protocol: (§1)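 Human cancer cell lines in 384-well plates, medium with 10% serum, drug for 72 h over a 256-fold dose range (nine 2-fold or five 4-fold steps up to the top dose). Adherent lines were fixed and stained with the nucleic acid dye Syto60, suspension lines read with resazurin; signal relative to control wells, capped at 0 and 100%. One two-parameter sigmoid per drug and line, fitted in a mixed model over all curves with the slope shared within a line.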

piperlongumine = compound: COc1cc(/C=C/C(=O)N2CCC=CC2=O)cc(OC)c1OC [piperlongumine]; details: top dose 10 µM
Protocol: as §1

PIK-93 = compound: CC(=O)Nc1nc(C)c(-c2ccc(Cl)c(S(=O)(=O)NCCO)c2)s1 [PIK-93]; details: top dose 20 µM
Protocol: as §1

GW 441756 = compound: Cn1cc(/C=C2\C(=O)Nc3cccnc32)c2ccccc21 [GW 441756]; details: top dose 2 µM; top dose inferred
Protocol: as §1

ABT-263 = compound: CC1(C)CCC(c2ccc(Cl)cc2)=C(CN2CCN(c3ccc(C(=O)NS(=O)(=O)c4ccc(N[C@H](CCN5CCOCC5)CSc5ccccc5)c(S(=O)(=O)C(F)(F)F)c4)cc3)CC2)C1 [ABT-263]; details: top dose 2 µM; top dose inferred
Protocol: as §1

Salubrinal = compound: O=C(/C=C/c1ccccc1)NC(NC(=S)Nc1cccc2cccnc12)C(Cl)(Cl)Cl [Salubrinal]; details: top dose 16 µM; top dose inferred
Protocol: as §1

Cell Line	AUC (GW843682X)	IC50 (GW843682X) [nM]	AUC (piperlongumine)	IC50 (piperlongumine) [nM]	AUC (PIK-93)	IC50 (PIK-93) [nM]	AUC (GW 441756)	IC50 (GW 441756) [nM]	AUC (ABT-263)	IC50 (ABT-263) [nM]	AUC (Salubrinal)	IC50 (Salubrinal) [nM]
NCI-H2081 (small cell lung carcinoma, suspension)	0.926	> 256	0.98	> 10000	0.924	> 20000	0.97	> 2000	0.973	> 2000	0.962	> 16000
OMC-1 (cervix, adherent)	0.914	> 256	0.81	5540	0.89	> 20000	0.947	> 2000	0.895	> 2000	0.978	> 16000
LB1047-RCC (kidney, adherent)	0.65	44.1	0.774	4420	0.806	11700	0.859	2000	0.919	> 2000	0.937	> 16000
P31-FUJ (acute myeloid leukaemia, suspension)	0.996	> 256	0.834	4460	0.956	> 20000	0.996	> 2000	0.978	> 2000	0.995	> 16000
MHH-PREB-1 (B-cell leukaemia, suspension)	0.538	20.1	0.623	1310	0.375	588	0.986	> 2000	0.989	> 2000	0.79	6320
BL-41 (Burkitt lymphoma, suspension)	0.415	9.91	0.76	2780	0.459	990	0.994	> 2000	0.994	> 2000	0.862	8720
KARPAS-45 (lymphoblastic leukaemia, suspension)	0.293	4.69	0.939	> 10000	0.234	251	0.986	> 2000	0.435	85.6	0.917	> 16000
A388 (skin, adherent)	0.482	14.1	0.764	4140	0.825	14400	0.958	> 2000	0.678	426	0.93	> 16000
TK10 (kidney, adherent)	0.717	75.7	0.741	3590	0.879	> 20000	0.962	> 2000	0.948	> 2000	0.943	> 16000
EJM (lymphoid neoplasm, semi-adherent)	0.813	111	0.822	4680	0.601	2250	0.639	282	0.934	> 2000	0.932	> 16000
SU-DHL-6 (B-cell lymphoma, suspension)	0.505	16.4	0.856	4990	0.188	209	0.993	> 2000	0.705	396	0.75	4120
MMAC-SF (melanoma, adherent)	0.934	> 256	0.742	3200	0.983	> 20000	0.974	> 2000	0.93	> 2000	0.946	> 16000
SF539 (glioma, adherent)	0.895	> 256	0.592	1080	0.832	11100	0.988	> 2000	0.989	> 2000	0.987	> 16000
KMOE-2 (acute myeloid leukaemia, suspension)	0.896	256	0.782	3700	0.719	4810	0.958	> 2000	0.513	135	0.792	6380
MOLT-13 (T-cell lymphoblastic leukaemia, suspension)	0.401	8.85	0.773	3420	0.763	6390	0.99	> 2000	0.382	62	0.906	> 16000
ES-2 (ovary, adherent)	0.736	68.3	0.881	8300	0.925	> 20000	0.975	> 2000	0.966	> 2000	0.96	> 16000
MLMA (hairy cell leukaemia, semi-adherent)	0.636	38.2	0.637	1500	0.227	198	0.982	> 2000	0.866	1810	0.914	> 16000
no-11 (glioma, adherent)	0.796	156	0.722	3180	0.904	> 20000	0.966	> 2000	0.883	> 2000	0.929	> 16000
KM12 (large intestine, adherent)	0.44	10.8	0.907	> 10000	0.915	> 20000	0.887	> 2000	0.949	> 2000	0.888	> 16000
HD-MY-Z (Hodgkin lymphoma, adherent)	0.599	29.9	0.654	1670	0.705	4750	0.943	> 2000	0.893	> 2000	0.882	> 16000
MFH-ino (soft tissue, adherent)	0.59	29.6	0.706	2660	0.879	> 20000	0.848	1900	0.972	> 2000	0.881	> 16000
